# Experimental data from PubChem BioAssay (NCATS).
# Values joined by “and” are separate entries in the source; they are usually repeats but may differ in a detail not shown here. Equal entries are not always repeated. The list shows a part of the results. These are further read-outs of the screen, such as a control signal, another cell line or another target. No call is given for them. Most of these compounds were active or inconclusive in the main read-out, so they are no random draw. Potencies come from curve fits of mixed quality, noted in brackets.
# Assay: qHTS Assay for Lipid Storage Modulators (AID 1519)
# Conditions: Drosophila S3 cells, BODIPY lipid droplet/cell ratio, laser cytometry, cells loaded with oleic acid
# Procedure, shortened: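 Cells seeded at 5,000 per well were treated with compounds over a concentration series and loaded with oleic acid (400 uM, as added). Lipid droplet fluorescence (488 nm excitation, 500-530 nm channel) was read by laser-scanning cytometry and normalized to 20 uM Triacsin C.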
# [1] = measured here: cell count channel max response
# [2] = measured here: cell number channel AC50
# [3] = measured here: lipid (BODIPY) channel AC50
# [4] = measured here: lipid channel max response
# Tags give direction and shape of the fitted curve.
Structure (SMILES),max response [1],AC50 [2],AC50 [3],max response [4]
COC(=O)[C@@H]1[C@@H]2C[C@H]3c4[nH]c5ccccc5c4CCN3C[C@@H]2CC[C@@H]1O,66.5% and 25%,"35.5 µM [rising, partial curve, poor fit] and 8.91 µM [rising, full curve, poor fit]","12.6 µM [rising, full curve, poor fit]",82.7% and 33.8%
Fc1ccc(Nc2nc(-c3ccoc3)nc3ccccc23)cc1,-8.29%,"0.794 µM [rising, full curve, poor fit]","0.794 µM [rising, full curve]",0.696%
Cc1cnc(CNc2nc(-c3ccccc3C)nc3ccccc23)cn1,34.8%,"0.447 µM [rising, full curve]","1 µM [rising, full curve, poor fit]",45.7%
CN(C)c1ccc(-c2cncnc2-n2ccnc2)cc1,32.8%,"0.631 µM [rising, full curve]","0.794 µM [rising, full curve]",38.4%
COc1ncc2nc(-c3cc(F)cc(F)c3)c(=O)n(CCc3ccccc3)c2n1,-8.15%,"4.47 µM [rising, partial curve, poor fit]","1.26 µM [rising, partial curve, poor fit]",-3.32%
CN(C)C(=O)c1ccc(-c2cc(N(C)Cc3ccco3)ncn2)cc1,42.6%,"39.8 µM [rising, partial curve]","39.8 µM [rising, partial curve]",49.8%
